Whole data set: some 110,000 compounds, median “z-score” near -0.1, cut for the highest 2% near 2. The list shows a part of the results. Calls of active or inactive are those of the source.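 The calls were made as follows: active = z-score in the third read window above 3 or below -3; inactive = the rest.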 Residues, ends and D or L forms follow the SMILES beside them. *: point of attachment. Boc = CC(C)(C)OC(=O)*
biological target: Metabotropic glutamate receptor 8 (Rattus norvegicus) (UniProt P70579); test: rat mGluR8 modulators via GIRK flux, primary screen, cell-based, thallium flux, HTS (AID 488969); conditions: HEK293 rat mGluR8, GIRK (G protein-gated inwardly rectifying potassium channel) thallium flux, FluoZin2; at 10 µM; stronger effect = higher value; submaximal glutamate (EC20) added with thallium
Chain of UniProt P70579 (P70579 whole entry, looked up): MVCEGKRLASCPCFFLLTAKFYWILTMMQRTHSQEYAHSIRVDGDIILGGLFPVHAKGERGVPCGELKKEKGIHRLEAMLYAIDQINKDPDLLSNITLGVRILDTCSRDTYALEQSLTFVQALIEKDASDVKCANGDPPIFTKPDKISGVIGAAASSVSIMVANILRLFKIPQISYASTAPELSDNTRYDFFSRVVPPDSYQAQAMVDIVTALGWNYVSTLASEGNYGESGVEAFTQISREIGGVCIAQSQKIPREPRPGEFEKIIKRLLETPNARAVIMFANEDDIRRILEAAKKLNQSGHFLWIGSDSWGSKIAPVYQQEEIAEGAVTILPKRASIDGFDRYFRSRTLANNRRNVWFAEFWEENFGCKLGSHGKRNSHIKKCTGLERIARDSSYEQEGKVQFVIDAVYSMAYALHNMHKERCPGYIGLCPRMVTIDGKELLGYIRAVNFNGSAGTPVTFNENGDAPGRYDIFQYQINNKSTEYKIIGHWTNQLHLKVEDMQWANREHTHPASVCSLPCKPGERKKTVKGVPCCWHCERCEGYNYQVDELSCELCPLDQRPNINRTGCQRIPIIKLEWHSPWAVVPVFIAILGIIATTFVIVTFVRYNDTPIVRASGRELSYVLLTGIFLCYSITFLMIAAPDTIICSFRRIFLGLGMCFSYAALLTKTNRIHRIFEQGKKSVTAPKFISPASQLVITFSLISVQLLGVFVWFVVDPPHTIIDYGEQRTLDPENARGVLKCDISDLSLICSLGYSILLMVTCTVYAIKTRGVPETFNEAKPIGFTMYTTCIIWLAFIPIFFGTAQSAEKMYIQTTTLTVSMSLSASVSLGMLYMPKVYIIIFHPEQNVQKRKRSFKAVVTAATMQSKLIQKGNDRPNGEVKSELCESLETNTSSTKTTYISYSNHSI

| SMILES | z-score |
| --- | --- |
| CCN(CC)C(=O)CN(c1ccc(F)c(Cl)c1)S(C)(=O)=O | -0.175 |
| CC(C)OC(=O)CSc1nnc(-c2cnccn2)n1C | 0.0117 |
| O=C1c2ccccc2C(=O)c2c1oc(C(F)(F)F)c2C(=O)c1ccccc1 | 0.336 |
| O=C(Nc1ccc2nc(-c3cccnc3)[nH]c2c1)c1ccccc1F | -0.245 |
| COc1ccc(N2CCN(C(=O)c3ccc(C)cc3Cl)CC2)cc1 | 0.566 |
| COc1ccc(Cn2nnnc2C(c2cccs2)N2CCCCCC2)cc1 (stereo not drawn) | -0.109 |
| COc1ccc(C2=Nn3c(nnc3-c3ccccc3)SC2)cc1OC | -0.248 |
| CC(=O)Nc1ccc(OC(=O)c2cc3ccccc3oc2=O)cc1 | -0.191 |
| O=C(Nc1ccc(F)c(F)c1)c1ccccc1-c1ccccc1 | -0.352 |
| O=S(=O)(c1cc(Cl)ccc1Br)N1CCOCC1 | 0.587 |
| CCOc1ccccc1OCCOc1ccc(F)cc1 | -0.0385 |
| CSCCC(NC(=O)OC(C)(C)C)C(=O)NC(CC(C)C)C(N)=O (stereo not drawn) (Boc-Met-Leu-NH2; configuration not given here) | 0.917 |
| Cc1ccc(C(=O)Cn2nnc3c(sc4nc5c(c(-c6ccccc6)c43)CCC5)c2=O)cc1 | -0.285 |
| CC(C)N(C(=O)CSc1nc2ccccc2n1Cc1ccc(F)cc1)C(C)C | 0.19 |
| O=C(NNC(=S)Nc1cccc2ccccc12)c1cccc(Br)c1 | active: 13.9 |
| O=C(c1ccccc1)N1CCN(C(=O)c2ccccc2)C1c1ccccc1 | -0.731 |
| O=C(Nc1ccccc1)c1ccc(NCCN2CCOCC2)c(S(=O)(=O)N2CCOCC2)c1 | -0.275 |
| O=C(C1CCN(S(=O)(=O)c2cccc3cccnc23)CC1)N1CCN(c2ccc(Cl)cc2)CC1 | -1.57 |
| CCCC/C(O)=C1\C(=O)CC(C)(C)CC1=Nc1ccccc1OC | -0.872 |
| CCC1CCCCN1CCNS(=O)(=O)c1ccc2c(c1)oc(=O)n2C (stereo not drawn) | 0.0475 |
| COc1ccc(Nc2ncnc3ccccc23)c(OC)c1 | -0.192 |
| Cn1cccc1CC(=O)NNC(=S)Nc1ccc(Cl)cc1 | -0.0587 |

| SMILES | z-score |
| --- | --- |
| CCOC(=O)C1CCN(C(=O)c2ccc3snnc3c2)CC1 | 0.612 |
| CCCCn1c(-c2ccco2)n[nH]c1=S | 0.805 |
| CSc1nc(=NC(C)=O)ss1 | 0.199 |
| COc1cc(OC)c(OC)cc1/C=N/NC(=O)c1cc(-c2cccn2C)n[nH]1 | -0.38 |
| COC(=O)Cc1c(C)nc2nc(NCc3cccc([N+](=O)[O-])c3)[nH]n2c1=O | -0.123 |
| C/C(=N\NC(=O)c1cccc(C)c1)c1cccc(NC(=O)c2ccco2)c1 | -0.159 |
| O=C(NCCN1C(=O)S/C(=C\c2cccs2)C1=O)[C@H](Cc1ccccc1)N1C(=O)c2ccccc2C1=O | -0.134 |
| O=C(COc1ccc(Cl)cc1)N1CCN(S(=O)(=O)c2ccc(Cl)cc2)CC1 | -0.0869 |
| CC1(C)Cc2ccccc2/C(=C/C(=O)N2CCCCCC2)N1 | -0.0953 |
| Cc1ccc(C(=O)N2CCN(Cc3ccc4c(c3)OCO4)CC2)o1 | -0.67 |
| Cc1cc(C)c(S(=O)(=O)/N=C2\C=CC(=O)C(Cl)=C2)c(C)c1 | -0.429 |
| Cc1ccc(NS(=O)(=O)N(C)C)cc1 | -0.0604 |
| Cc1nn(Cc2ccc([N+](=O)[O-])cc2)c(=O)n1N(C)c1ncc(C(F)(F)F)cc1Cl | -0.0238 |
| CCN(CC(=O)NCc1cccs1)c1ccc(S(=O)(=O)N2CCOCC2)cn1 | -0.111 |
| O=C(Nc1cccc(C(F)(F)F)c1)c1n[nH]c(Cn2cncn2)n1 | -0.531 |
| COc1ccc(/C=N/NC(=O)c2nc(Cl)c(Cl)c(N)c2Cl)cc1COc1ccccc1F | -0.375 |
| O=C(NCc1cccs1)c1ccc([N+](=O)[O-])cc1 | -0.113 |
| O=C(NCCN1CCN(c2ccccc2)CC1)C1CCN(S(=O)(=O)c2cccs2)CC1 | 0.198 |
| O=C(NC1CCCCC1)N1CCc2ccccc21 | 0.225 |
| CC(Oc1ccccc1)C(=O)Nc1cccc(F)c1 (stereo not drawn) | 1.19 |
| O=C(Cn1nnc(-c2ccccc2-n2cnnn2)n1)c1ccccc1 | 0.414 |
| CC(C)(C)OC(=O)COc1cc(O)c2c(=O)cc(-c3ccccc3)oc2c1 | active: 4.76 |

| SMILES | z-score |
| --- | --- |
| CCOC(=O)C1=C(C)N(c2ccccc2)C(=O)NC1c1cccc([N+](=O)[O-])c1 (stereo not drawn) | 0.239 |
| O=C(NCCC1=CCCCC1)C1CCN(C(=O)Nc2ccccc2)CC1 | -0.194 |
| CCOC(=O)CC(=O)CSc1nc(-c2cccnc2)ccc1C#N | -0.111 |
| COc1ccc2c(c1)nc(SCC(=O)c1cccs1)n2C | 0.331 |
| COc1cc(/C=N/n2cnnc2)ccc1OCc1ccccc1 | -0.183 |
| COc1ccc(C(CNC(=O)c2cccc(N(C)C)c2)N2CCCC2)cc1 (stereo not drawn) | 0.0976 |
| O=C1CCC([N+](=O)[O-])C(c2cccc(Br)c2)N1 (stereo not drawn) | -0.329 |
| O=C(Nc1ccc(Cl)cc1)Nc1ccc(N2CCCC2)c(S(=O)(=O)Nc2ccccc2Cl)c1 | -0.172 |
| COc1ccc(NC(=O)c2oc3cc(C)c(C)cc3c2C)c(OC)c1 | -0.322 |
| CN(C)c1ccc(NC(=O)CC2NCCNC2=O)cc1 (stereo not drawn) | 1.1 |
| O=C(COc1cccc2ccccc12)N1CCN(c2ccccc2)CC1 | 0.553 |
| COc1ccc(NC(=O)CCN2CCN(S(=O)(=O)c3cc(Cl)ccc3Cl)CC2)cc1 | -0.0322 |
| FC(F)(F)c1cnc(/C=C/Nc2ccccc2Cl)c(Cl)c1 | -0.0309 |
| Cc1cccc(NC(=O)CN2C(=S)NC(C)(C)CC2C)c1 (stereo not drawn) | -0.0541 |
| COc1ccc(CCNC(=O)c2ccc(CNS(=O)(=O)c3ccccc3)cc2)cc1OC | 0.0244 |
| CC(C)NC(=O)CSc1nnc(C2CC2)n1-c1ccccc1 | 0.0182 |
| COc1ccc(NC(=O)N2Cc3ccccc3CC2C(=O)NC(C)(C)C)cc1 (stereo not drawn) | 0.00246 |
| CN(C)CCCNCCNC(=O)/C=N\O | -0.494 |
| Cc1ccc2nc(-c3ccc(NC(=S)NC(=O)C(C)C)cc3)sc2c1 | -0.127 |
| O=C(Nc1ccc(C(=O)Oc2ccccc2)c(O)c1)c1ccco1 | 1.21 |
| Cc1ccc(C(=O)NCCN2CCCC2)cc1 | 0.286 |
| CCCN1CCN(C(c2cc3cc4c(cc3[nH]c2=O)OCO4)c2nnnn2C(C)(C)C)CC1 (stereo not drawn) | 0.00613 |

| SMILES | z-score |
| --- | --- |
| CCc1c(C(=O)Nc2nnc(C3CC3)s2)csc1C | 1.09 |
| COC(=O)C1CCN(C(=O)COC(=O)[C@@H]2CC(O)CN2S(=O)(=O)c2ccc3c(c2)OCCO3)CC1 (stereo partly drawn) | 1.01 |
| Cc1sc2nc(CSc3ccccc3)nc(N3CCOCC3)c2c1C | -0.132 |
| O=C(CN1N=C(c2ccc(Cl)cc2)CCC1=O)NCCN1CCc2ccccc2C1 | 0.242 |
| O=C(c1ccccc1)N1N=C(c2ccccc2)CC1c1ccccc1[N+](=O)[O-] (stereo not drawn) | 0.877 |
| COc1c2ccc(C(=O)NCc3cc(C(F)(F)F)cc(C(F)(F)F)c3)cc2nn1C | -0.0572 |
| CCOC(=O)c1sc(NC(=S)NC(=O)c2ccccc2)c(C(=O)OCC)c1C | 0.582 |
| CC(C)c1nc(N2CCN(C(=O)c3ccccc3)CC2)c(C#N)c2c1COC(C)(C)C2 | 0.413 |
| CS(=O)(=O)N(CC(=O)N1CCN(c2cccc(Cl)c2)CC1)c1ccccc1 | 0.537 |
| O=C(CC1SC(=NC2CCCCC2)NC1=O)Nc1ccccc1 (stereo not drawn) | -0.0601 |
| C=CCn1c(=O)n(CCC#N)c(=O)n(CCC#N)c1=O | -0.0814 |
| CC1=C(C(=O)Nc2ccccc2)C(c2ccc(C)o2)n2c(s/c(=C\c3ccco3)c2=O)=N1 (stereo not drawn) | -0.299 |
| CC(=O)NS(=O)(=O)c1ccc(NC(=O)c2ccc(Br)o2)cc1 | 0.0733 |
| CC1(C)CC2CC(C)(CN2C(=O)c2cccs2)C1 (stereo not drawn) | -0.148 |
| CCOc1ccc(NC(=O)c2ccccc2NS(C)(=O)=O)cc1 | -0.756 |
| Cc1ccc(Cl)cc1-n1c(=O)cc(N2CCN(C(=O)c3ccco3)CC2)[nH]c1=O | 0.259 |
| Cc1cc(-c2csc(N)n2)c(C)n1CCc1ccccc1 | 0.549 |
| O=C1OC(N2CCN(C(=O)c3ccco3)CC2)c2ccccc21 (stereo not drawn) | 0.502 |
| O=C(O)CCN=C1CCCc2ccccc2N1 | 0.441 |
| COc1cc(S(=O)(=O)Nc2cccnc2)ccc1F | -0.219 |
| O=S(=O)(Cc1ccccc1)N1CCCC1 | -0.328 |
| COc1cccc(C(=O)N2N=C(c3cccc(OC)c3)CC2(O)C(F)(F)F)c1 (stereo not drawn) | 0.00352 |

| SMILES | z-score |
| --- | --- |
| CCOC(=O)C1CCN(C(=O)C23CC4CC(CC(C4)C2)C3)CC1 | 0.212 |
| C/C=C/c1ccc(OCCCNC(C)CC)c(OC)c1 (stereo not drawn) | 0.208 |
| O=C1O/C(=C\C(=O)N2CCOCC2)c2ccccc21 | 0.364 |
| O=C1CC(N2CCN(c3ccc(C(=O)c4ccc(F)cc4)cc3)CC2)C(=O)N1 (stereo not drawn) | -1.07 |
| Cc1c(C(=O)NCCN2CCOCC2)sc2nc(-c3ccc(F)cc3)cn12 | -0.908 |
| Cc1cccc(C)c1NC(=O)CSc1nnnn1-c1ccc(C(=O)O)cc1 | -0.332 |
| Cc1ccc2nc(NCCCN3CCOCC3)c(C=NCCCN3CCOCC3)c(=O)n2c1 | -0.174 |
| O=C(Nc1ccc(-c2noc(-c3ccccc3F)n2)cc1)c1cccs1 | -0.126 |
| CCOc1ccc(N=Cc2c(C)[nH]n(-c3nc4ccccc4[nH]3)c2=O)cc1 | 0.0911 |
| COc1cccc(C(=O)N/N=C/c2cn[nH]c2-c2ccc(OC)cc2OC)c1 | -1.31 |
| Cc1cc(C)cc(C(=O)NC(=S)Nc2ccc3[nH]c(=O)[nH]c3c2)c1 | -0.217 |
| N#CCCN/N=C(\Cc1nc2ccccc2[nH]1)c1ccccc1 | 0.0244 |
| COc1cc(OC)c2nc(C)c3c(c2c1)N(c1ccc(O)cc1)CC3 | active: 3.3 |
| COc1cccc(C2(c3cccc(OC)c3)CC2C(=O)Nc2ccccc2Cl)c1 (stereo not drawn) | 0.0271 |
| O=C1CSC(c2cn(-c3ccccc3)nc2-c2cc3ccccc3oc2=O)N1Cc1ccco1 (stereo not drawn) | 0.104 |
| CC(C)n1nnnc1SCC(=O)c1ccc2c(c1)OCCO2 | -0.226 |
| CN(C)S(=O)(=O)c1ccc(N2CCCC2)c(C(=O)Nc2nc(-c3ccc(F)cc3)cs2)c1 | -0.117 |
| COCCn1c(SCc2cccnc2)nnc1-c1ccco1 | -0.142 |
| Cn1cc(C(=O)N2CCN(C(=O)c3ccco3)CC2)c2c3ccccc3n(C)c2c1=O | -0.065 |
| NS(=O)(=O)c1ccc2c(c1)C1C=CCC1C(C1CC=CCC1)N2 (stereo not drawn) | -0.272 |

Source: PubChem BioAssay AID488969 (Vanderbilt High Throughput Screening Facility, 2010)
